In all, about 33,000 sequences were measured (“E-score (-0.5 to 0.5)”: median about -0.011, highest 2% from about 0.28 on). The list shows a part of the results.
target: T1, Gcr1 (UniProt P07261); test: PBM E-score (8-mer binding enrichment) (E-score (-0.5 to 0.5)); higher = stronger / more preferred TF binding; most listed sequences are background and not binding sites; details: protein concentration: 100 nM; construct: GST-full length
T1 sequence: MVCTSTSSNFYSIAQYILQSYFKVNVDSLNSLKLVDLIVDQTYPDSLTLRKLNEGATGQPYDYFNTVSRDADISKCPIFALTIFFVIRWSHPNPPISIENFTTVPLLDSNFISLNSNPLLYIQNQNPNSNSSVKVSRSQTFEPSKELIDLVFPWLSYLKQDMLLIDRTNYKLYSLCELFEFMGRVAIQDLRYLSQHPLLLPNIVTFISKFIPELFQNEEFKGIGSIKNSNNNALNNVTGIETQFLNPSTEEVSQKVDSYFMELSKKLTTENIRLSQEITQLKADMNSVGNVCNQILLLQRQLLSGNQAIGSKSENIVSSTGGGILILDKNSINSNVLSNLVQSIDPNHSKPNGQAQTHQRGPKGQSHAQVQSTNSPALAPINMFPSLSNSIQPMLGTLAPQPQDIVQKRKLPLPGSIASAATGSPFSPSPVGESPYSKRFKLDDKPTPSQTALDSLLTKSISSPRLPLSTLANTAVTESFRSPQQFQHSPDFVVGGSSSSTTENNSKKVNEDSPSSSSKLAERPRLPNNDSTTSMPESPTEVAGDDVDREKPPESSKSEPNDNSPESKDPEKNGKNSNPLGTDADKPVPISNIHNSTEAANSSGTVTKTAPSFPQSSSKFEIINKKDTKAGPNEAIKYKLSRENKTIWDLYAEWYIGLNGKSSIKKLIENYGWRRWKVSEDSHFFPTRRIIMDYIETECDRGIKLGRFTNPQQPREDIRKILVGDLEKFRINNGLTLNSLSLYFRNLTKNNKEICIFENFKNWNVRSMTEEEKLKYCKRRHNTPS
Outline: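 Each ungapped eight-base word and its reverse complement, pooled, received an E-score from the Universal PBM Analysis Suite. Underlying scans, normalised with masliner, recorded fluorescent anti-GST bound to GST-tagged yeast transcription factors. These were applied at about 100-200 nM to universal all-10-mer Agilent arrays double-stranded by primer extension.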

Point of comparison: TATCGCGA, “PBM E-score” value 0.0936. Against it:
- CCCAGTGA — lower, 0.0204
- ATAATATC — lower, 0.0896
- CGTTGGTA — lower, -0.0272
- CCCAGTTA — lower, 0.0016
- CACATGTA — lower, -0.0101
- ACCGCCCG — lower, -0.25
- CTGTATTA — higher, 0.188
- AGTCTCAT — lower, -0.212
- TATTAGCA — higher, 0.194
- GTCACCGA — lower, 0.065
- GGATAGTA — lower, -0.0553
- CTGATTAC — lower, 0.027
- ACATGCAC — lower, -0.0191
- GACAGCCC — lower, -0.173
- CCGTAGGC — lower, -0.271
- AACCAGAC — lower, -0.0315
- CCATCTGC — higher, 0.156
- GCCAAATA — lower, 0.0694
- GTGGTGCA — lower, -0.107
- GCCGATCC — lower, -0.168
- CCCCATCG — lower, 0.00426
- ATACGGCC — lower, -0.151
- CGGACATA — lower, -0.0746
- GGTCGATA — lower, -0.135
- CGACTCCA — lower, 0.0419
- GAGATGAC — lower, -0.26
- GAGCATCC — higher, 0.398
- CGCAATAC — higher, 0.108
- GTGTGGTA — lower, 0.0549
- GTGCTCGA — lower, -0.0883
- AAACGCAA — lower, -0.0505
- AGTGCAAC — lower, -0.119
- GCGAGCAC — lower, -0.124
- GCTCAAAC — lower, -0.0452
- AGTCGCAT — lower, -0.0858
- ATTATGAA — higher, 0.152
- GCTTCACA — lower, -0.0209
- AATCTCAG — higher, 0.0955
- ACTTCTTG — higher, 0.133
- CTGGTGGC — lower, 0.0573
- CGCTAGTA — lower, 0.00429
- GATGTCGC — lower, 0.0876
- GATTGGGA — higher, 0.103
- CTCATACC — lower, 0.0158
- AAACGTCC — lower, -0.0501
- CCGCCCCG — higher, 0.243
- ATAAAATA — higher, 0.236
- CGTTTTCA — lower, -0.0253
- GTGTTCGA — lower, -0.0345
- GCGGCTAC — higher, 0.155
- CGTCTACC — lower, 0.0358
- ACTGCCTG — lower, -0.0454
- ACGTGAAT — lower, -0.0556
- AACGTACG — lower, -0.19
- CGCTCACG — lower, 0.0795
- AAGTAGAT — higher, 0.204
- ACGATGCG — lower, 0.0696
- CGTGAATC — lower, 0.0163
- GGTCCAGA — lower, -0.0324
- ATCTTGAC — lower, -0.00526
- AATTGGCA — lower, 0.0395
- AGGGGTTC — lower, 0.0309
- CCAGTACA — lower, 0.061
- GAACGGTA — lower, -0.359
- AGGTGGAC — lower, -0.29
- GTTCCGCA — higher, 0.16
- AAATTAGT — higher, 0.193
- AAAAGCCG — lower, -0.0544
- ACGCAGCC — higher, 0.304
- GAGGCAGA — lower, -0.153
- CAATTAAC — lower, 0.0449
- CCCGCCGG — lower, 0.0392
- ACGTAGTC — lower, -0.247
- CCGCGCAC — higher, 0.11
- AATCAAAA — lower, 0.00059
- AGCCGTAT — lower, -0.0395
- GACCGGCC — lower, -0.105
- ATTTTGCA — lower, -0.0454
- CCAGTGCC — lower, -0.0625
- GCCGGCGA — lower, 0.0912
- CCTATAAA — higher, 0.227
- CGGGAAAA — lower, -0.0339
- CAGATTAG — lower, 0.0596
- TAACTTCA — lower, 0.0443
- CTGTTGTA — higher, 0.149
- AAAGAACA — lower, -0.0499
- GGGAGCCC — higher, 0.226
- AACATTTA — lower, 0.00541
- AGCCATGA — lower, -0.0623
- AGCGGAAG — higher, 0.262
- AGAGATAT — lower, -0.065
- AGTGAAGA — lower, 0.084
- GAGTGCAC — lower, -0.225
- AATTTTCC — lower, -0.0622
- GACAACAA — lower, -0.0383
- ATGACATA — higher, 0.127
- CCGACCGG — lower, -0.228
- CGATGCAA — lower, -0.00404
- ATTTGAGC — lower, 0.044
- ACAGCCCA — lower, -0.203
- CATAGGTA — lower, -0.16
- ATCGCTCA — lower, -0.22
- ATTCGATG — lower, -0.224
- GTAGCGTA — lower, -0.035
- CAAGACGA — lower, -0.126
- ACGTTGAT — lower, -0.088
- CTGGCGGC — higher, 0.265
- AGTGTGCA — lower, -0.0703
- GACCCCAC — higher, 0.109
- ACCTGACC — lower, -0.114
- AAAAACAC — higher, 0.16
- CAGTGCAC — lower, -0.236
- AGATGCAG — lower, 0.0768
- AATTATCT — lower, 0.0755
- CTCTTATA — higher, 0.148
- TCAATGGA — higher, 0.134
- GGTCGTGA — lower, -0.182
- ATACTTTG — higher, 0.108
- GAGAACCC — lower, -0.162
- ACCGAACT — lower, -0.101
- CTGGTTTC — higher, 0.156
- AGCACAAC — lower, -0.239
- AAGAACAC — lower, -0.0308
- AAATTGTG — lower, -0.0559
- AAGGCTGA — lower, -0.141
- CAAGACCC — lower, -0.00554
- AAGACTCG — lower, -0.173
- CACGCTGA — lower, -0.0481
- CAGCGCAG — lower, -0.202
- ACTTCATC — lower, 0.0133
- AGGTCGTG — lower, -0.126
- GAAGGTAC — lower, -0.081
- CAAAAGCC — lower, -0.105
- CGATTGTC — lower, -0.16
- CTGATCGA — lower, -0.133
- AATACAGC — lower, -0.151
- TCCCCAAA — higher, 0.226
- CCAGTGAA — lower, 0.0919
- GACGCCTA — higher, 0.205
- CCGCGGCG — lower, 0.0505
- ATCCCTCG — lower, -0.1
- AGGTAATA — lower, 0.0421
- GTGGCCCA — lower, -0.239
- AGGCCACA — lower, -0.0873
- CAATGATA — lower, -0.0969
- AAAGCCTT — lower, -0.175
- CTGCATAA — higher, 0.163
- AGTTCACC — higher, 0.108
- GAGGCCAC — higher, 0.146
- CGTGATAA — higher, 0.144
- CCTCACAG — lower, -0.035
- GTTTGGTA — higher, 0.108
- ATTCTTCG — lower, -0.0525
- AGATCGTC — lower, -0.0739
- ACCAACTG — lower, 0.0244
- GACGAGGA — lower, 0.0795
- ACAAGGTG — lower, 0.0691
- CTCTGGTA — lower, 0.0394
- AGCCGTGG — lower, -0.108
- AGAAGCAG — higher, 0.174
- CATAGTGG — higher, 0.135
- ATGATGAA — higher, 0.11
- CACATCCC — lower, 0.0123
- GGCGATAA — lower, -0.062
- GACATTAC — higher, 0.102
- AGGCCGAA — lower, -0.131
- ACCCAGCG — lower, -0.188
- AAGGGATT — lower, -0.132
- ACTGAGGA — lower, -0.0737
- AAAGAGGT — lower, 0.028
- ACCACTAT — higher, 0.356
